Measurements from PubChem BioAssay AID1347417 (National Center for Advancing Translational Sciences (NCATS), 2020).
Out of some 120,000 compounds screened, about 5,300 (4.4%) were called active. The shares of active, inactive and inconclusive entries below differ from those in the screen. Calls come from the whole dose curve; as a rule, active = well fitted inhibition curve with a large enough effect; inconclusive = small, poorly fitted or top-dose-only effect; inactive = no such curve, though single readings can be large or run the other way. Where the call is inconclusive, the potency comes from a doubtful curve fit.

Assay: qHTS Primary assay for Inhibitors of Plasmodium falciparum Dd2 growth in vitro; note: nearly all actives have a fitted effect of over 65% in size
Conditions: P. falciparum Dd2 growth, SYBR Green, 72 h; series mostly up to 28.9 µM
From the text: Malaria, a parasitic disease spread to humans through the bite of a Plasmodium infected Anopheles mosquito, continues to be a global health burden affecting millions of people, with an estimated 228 million cases and 405,000 deaths in 2018. Concerns about safety and limitations of current antimalarial treatments strongly emphasize the need to develop new therapeutic options. The scarce number of chemotypes and validated drug targets with efficacy against the liver stage, have hindered development of new antimalarials. To address this, a chemoprophylactic drug discovery effort was conducted through a combined phenotypic high-throughput asexual blood stage and liver stage screen, providing a robust foundation to identify liver-stage active lead chemotypes. Compounds were initially screened against Plasmodium falciparum Dd2 strain parasites using a in vitro SYBRGreen-1 based 72 hr proliferation assay to identify novel chemotypes to advance to liver stage assays. NIH/NCATS Early Translation Branch Assay Submitter (PI): Anton Simeonov Ph.D.
Malaria-vivax Assay Protocol: PROTOCOL TABLE (as described by Inglese et al., 2007) SEQUENCE No. (e.g., 1, 2, 3, etc.); […] (e.g., Cells, Incubation, Reagent, etc.); VALUE; DESCRIPTION SEQUENCE, Parameter, Description 1; Reagent; 3 uL complete malaria growth medium, 1536 TC treated Black clear bottom plate 2; Controls; 23 nL positive control artesunate (300 nM final) to column 1; Neutral control DMSO to columns 2-4 3; Compound; 23 nL of compounds in dose response concentration (29 uM to 0.5 nM final) 4; Reagent; 5 uL malaria infected red blood cells (2.5% hematocrit final, 0.3% parasitemia 5; Time; 72 hours at 37C (5% O2, 5% CO2, 90% N2; 95% Rh) 6; Reagent; 2 uL lysis buffer/SYBRGreen-1, 25 sec shake immediately following dispense 7; Time; ~16 hours at 37C (5% O2, 5% CO2, 90% N2; 95% Rh) 8; Detector; EnVision (PerkinElmer) bottom read at 485/14nm excitation and 535/25 nm emission NOTES (numbers refer to sequence above): 1; Complete Malaria Growth Media: 1X RPMI-1640 w/L-glutamine, 5.5g/L Albumax II, 367 uM Hypoxanthine, 25 mM HEPES, 0.25% Sodium Bicarbonate, 35 uM Gentamicin sulfate 2; Controls were added using the Kalypsis Pintool (Wako USA) equipped with 1536 pinhead 3; Compounds were added in a 7-point, titration with a high final concentration of 29 uM by Pintool from seven inter-plate titrations of library plates and two DMSO control plates at the beginning and end (see Yasgar et al., 2008). 4; Red blood cells infected with Plasmodium falciparum Dd2 parasites were used. 6; Lysis buffer: 20 mM Tris-HCl, 10 mM EDTA, 0.16% Saponin, 1.6% Triton-X, 10X SYBR Green. REFERENCE: Inglese J, Shamu CE, Guy RK. 2007. Reporting data from high-throughput screening of small-molecule libraries. Nat Chem Biol. doi:10.1038/nchembio0807-438 Yasgar A, Shinn P, Jadhav A, Auld D, Michael S, Zheng W, Austin CP, Inglese J, Simeonov A. 2008. Compound Management for Quantitative High-Throughput Screening. J Lab Autom 13:79-89. doi:10.1016/j.jala.2007.12.004
Potency is the fitted concentration of half-maximal effect; tags give direction and shape of the fitted curve.

Structure (SMILES)	Potency
CC(=O)c1ccc(NC(=O)c2ccc3c(c2)N(Cc2cccc(Cl)c2)C(=O)c2ccccc2S3(=O)=O)cc1	inconclusive: 10 µM [inhibitor, single point]
CCOC(=O)c1c(C)[nH]c(C)c1S(=O)(=O)N1CCC(C(=O)Nc2ccc(F)cc2F)CC1	inactive
CN1C(=O)COC[C@@H]1[C@H](O)c1ccc(NC(=O)c2ccc(F)c(Cl)c2)cc1	inactive
O=C(Nc1ccc2c(N3CCOCC3)ncnc2c1)c1cccc(Cl)c1	inconclusive: 1.78 µM [inhibitor, full curve, poor fit]
Cc1ccc(C)c(S(=O)(=O)N2CCCN(C)c3ccccc32)c1	inconclusive: 10 µM [inhibitor, single point]
O=C1C(N2CCN(S(=O)(=O)c3ccc(F)cc3F)CC2)CCN1Cc1ccccn1 (stereo unspecified)	inconclusive: 11.2 µM [inhibitor, single point]
CCOc1ccc(CCNC(=O)CS(=O)Cc2nc(-c3ccc(C)cc3)oc2C)cc1OCC (stereo unspecified)	inconclusive: 17.8 µM [inhibitor, single point]
Cc1ccc(S(=O)(=O)Nc2ccc(C)n(CC(=O)NC(C)c3ccccc3)c2=O)cc1 (stereo unspecified)	inactive
CCOC(=O)c1cnc2cc(C(F)(F)F)ccc2c1N1CCN(c2ccc(F)cc2)CC1	inconclusive: 17.8 µM [inhibitor, single point]
Cc1cccc(CN2C[C@@H]3C[C@H]2C(=O)N(C)c2ccccc2O3)n1	inconclusive: 7.94 µM [inhibitor, partial curve, poor fit]
c1ccc(-c2nnc([C@H]3CCN(Cc4ccc5c(c4)OCO5)C3)o2)cc1	inconclusive: 7.94 µM [inhibitor, partial curve, poor fit]
CCCCCC(=O)Nc1nc2c(s1)C[C@@H]1[C@](C)(CO)[C@H](O)CC[C@@]1(C)[C@@H]2CC(=O)N1CCCCC1	inconclusive: 7.08 µM [inhibitor, partial curve, poor fit]
FC(F)(F)Oc1ccc(CNC2(Cc3cc(-c4ccccn4)on3)COC2)cc1	inconclusive: 35.5 µM [inhibitor, single point]
Cc1cc2cc(-c3c(C)noc3C)nc(Nc3ccn(C)n3)c2o1	inconclusive: 31.6 µM [inhibitor, single point]
O=C(Cc1ccccc1)Nc1c(C(=O)N2CCN(c3ccc(F)cc3)CC2)oc2ccccc12	inconclusive: 17.8 µM [inhibitor, single point]
O=C1Nc2ccccc2CC12CCN2Cc1cccnc1 (stereo unspecified)	inactive

Structure (SMILES)	Potency
O=C([C@@H]1C[C@H](F)CN1C(=O)Nc1cccc(Cl)c1)N1CCCCC1	inconclusive: 0.316 µM [inhibitor, full curve, poor fit]
O=C(NCCc1ccccc1)c1ccc2c(c1)CCN2S(=O)(=O)c1ccc(Br)cc1	inconclusive: 10 µM [inhibitor, single point]
CCC(=O)N1CCc2sc(C(=O)NCc3ccc4c(c3)OCO4)cc2C1	inactive
O=C(NCCOc1ccccc1)c1cnc2c(c1)N(C(=O)Cc1ccc(O)cc1)CCC2	inconclusive: 0.631 µM [inhibitor, full curve]
CN(C)C[C@@H]1CN(Cc2ccccc2)C[C@H]1N	inactive
Fc1cc(F)cc(Cc2nc3nccc(-c4cccs4)n3n2)c1	inconclusive: 1.12 µM [inhibitor, full curve]
CC(=O)Nc1cccc(-c2ncc3c(n2)OCCN(CC2CC2)C3=O)c1	inconclusive: 8.91 µM [inhibitor, partial curve, poor fit]
CNC(=O)c1cccc(-c2cnc3[nH]cc(CC(=O)N4CCCC4)c3c2)c1	inconclusive: 31.6 µM [inhibitor, single point]
CC(C)NC(=O)c1ccccc1OCC1CCCN(Cc2cn(C)c3ccccc23)C1 (stereo unspecified)	inconclusive: 0.282 µM [inhibitor, partial curve, poor fit]
CCOc1ccc(NC(=O)COc2ccc(-c3nnc4n3CCCC4)cc2)cc1	inconclusive: 4.47 µM [inhibitor, partial curve, poor fit]
O=C(O)c1cc(-c2ccc3cc[nH]c3c2)cc(S(=O)(=O)N2CCSCC2)c1	inactive
Cc1ccc(CN2CC[C@H]3CC[C@@H](C2)N3)s1	inconclusive: 3.98 µM [inhibitor, single point]
COc1ccc(-c2ccc(C(=O)NC3CC(c4cc(=O)[nH]c(N)n4)C3)o2)cc1 (stereo unspecified)	inconclusive: 20 µM [inhibitor, partial curve, poor fit]
Cc1ccc(C(=O)NCC2CCOCC2)cn1	inactive
CN1CCN(CCCNC(=O)C2CCc3sc(C(=O)N4CCCCCC4)cc3C2)CC1 (stereo unspecified)	inconclusive: 17.8 µM [inhibitor, single point]
